# Whole data set: some 33,000 sequences, median “E-score (-0.5 to 0.5)” near -0.012, cut for the highest 2% near 0.27. The list shows a part of the results.
# Target: T1, Vhr1 (UniProt P40522)
# T1 sequence: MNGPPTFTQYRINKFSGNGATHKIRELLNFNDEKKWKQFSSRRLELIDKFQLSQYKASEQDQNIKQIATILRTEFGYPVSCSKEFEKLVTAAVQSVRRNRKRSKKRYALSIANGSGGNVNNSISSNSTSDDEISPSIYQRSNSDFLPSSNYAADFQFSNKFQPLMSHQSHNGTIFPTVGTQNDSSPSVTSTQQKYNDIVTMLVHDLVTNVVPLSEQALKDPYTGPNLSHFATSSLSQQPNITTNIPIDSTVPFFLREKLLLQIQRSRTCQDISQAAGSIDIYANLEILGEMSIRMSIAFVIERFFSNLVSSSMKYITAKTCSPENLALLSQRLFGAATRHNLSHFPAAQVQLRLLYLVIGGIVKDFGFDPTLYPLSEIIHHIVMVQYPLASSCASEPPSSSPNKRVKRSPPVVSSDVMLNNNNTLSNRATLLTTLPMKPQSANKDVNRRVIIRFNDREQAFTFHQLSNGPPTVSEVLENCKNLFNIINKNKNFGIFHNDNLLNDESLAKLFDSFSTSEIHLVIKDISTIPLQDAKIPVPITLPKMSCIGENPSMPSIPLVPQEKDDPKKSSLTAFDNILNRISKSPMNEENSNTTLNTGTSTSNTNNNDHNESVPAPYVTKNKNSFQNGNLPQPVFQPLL
# Assay: PBM E-score (8-mer binding enrichment) (E-score (-0.5 to 0.5)); higher = stronger / more preferred TF binding; most listed sequences are background and not binding sites
# Conditions: protein concentration: 200 nM; construct: GST-full length
# In short: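 Universal all-10-mer Agilent arrays, double-stranded by primer extension on fresh or once-stripped slides, were probed with about 100-200 nM GST-tagged yeast transcription factors made by PURExpress. Fluorescent anti-GST detected bound protein, and masliner normalised the scans. E-scores from the Universal PBM Analysis Suite were given to each ungapped eight-base word pooled with its reverse complement.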
row,Sequence,PBM E-score
1,CTCCTTCA,-0.212
2,AGGGATAT,-0.0794
3,CACACTAC,0.078
4,AATTTAAC,0.2
5,CCGTATCC,0.13
6,CATGTGCC,0.0182
7,GTCCCGTA,-0.165
8,ATCCACGG,0.0499
9,CTCCGTGA,0.0921
10,ACCTACAG,0.0973
11,GAGACTAC,0.135
12,CCGAAAAC,-0.125
13,AAGACTGA,-0.0881
14,CCAATTAC,0.0306
15,AATGGTAG,0.191
16,GTCGCTGA,0.138
17,GACCACAA,0.041
18,CATCAAGG,-0.181
19,GTACTAAC,0.102
20,ACATACAG,0.0715
21,ATTATAAG,-0.109
22,GCTTAGGA,-0.0935
23,CCATTACA,0.236
24,CGGAGCCA,0.196
25,GAGGGCAC,-0.205

row,Sequence,PBM E-score
1,ACCCTTTA,-0.0907
2,ACGGCAAA,-0.0731
3,AGCCCCCC,-0.247
4,CAATATCG,0.0708
5,CGCAGAGC,-0.018
6,CTAACTGC,-0.178
7,AACCCCCC,-0.207
8,ATGCCCCC,-0.16
9,GCATCTTA,-0.0496
10,CCTATGCG,-0.0552
11,AACCGTCG,-0.0215
12,ATCCCGCA,-0.0136
13,CATCGTGC,-0.0818
14,AAAAGCGA,0.0171
15,GTCCTTGA,-0.135
16,AAATTATA,0.13
17,CATCTGGC,0.225
18,CCGGAAGG,-0.0756
19,AACTATGC,0.0408
20,CTTTAACC,-0.127
21,ACGTTGAG,-0.233
22,AAGCCAAA,-0.181
23,CATAGCCC,-0.143
24,ATAAACTG,0.125
25,TAGAATAA,-0.036

row,Sequence,PBM E-score
1,CACAGGCC,0.0336
2,GGGCACAC,-0.0311
3,CATTTCGA,-0.0564
4,CTGGAATC,0.104
5,TCATTGAA,-0.00861
6,GAGCGGGA,0.0183
7,AGCGATGG,0.123
8,AAATGCTG,-0.0217
9,CTTGGTGA,0.156
10,AATTAAGC,-0.148
11,CCTGAGTA,0.205
12,CTGGCCGC,-0.072
13,CTCAGTAA,-0.142
14,GAATAAGA,-0.0834
15,CTCTAACA,-0.098
16,AAGTGGCG,0.06
17,CATTCTGG,-0.0474
18,CTGAAGGA,-0.295
19,AGTAGTCC,0.0701
20,CTCTAGTA,0.00828
21,AATTCTTC,-0.211
22,ACCACGAT,0.226
23,GCTCGTGA,0.0309
24,CCTCTTTC,-0.259
25,GTCCACCA,-0.0881

row,Sequence,PBM E-score
1,CAGTTTGG,-0.00782
2,GCGTGAGC,0.205
3,CATTACAC,0.253
4,GGTTCTAA,-0.0638
5,CGATATGC,0.107
6,TGTTTTAA,-0.149
7,CGAATGGA,0.0534
8,CATACACA,0.113
9,AATTAAAA,-0.187
10,ATTCCCGA,-0.0416
11,ACGTTTAC,-0.223
12,CATCCGGA,-0.0233
13,ACCCACCA,0.296
14,ATGTCGAA,0.0643
15,GGGGCGGA,0.246
16,TACACTCA,0.143
17,AATGAATG,0.0955
18,AGACTCAA,0.214
19,CTAAAACA,-0.0504
20,CCTCGGTC,-0.116
21,CATTAGAG,-0.0175
22,CTTAGAAC,-0.196
23,ACTGGTTG,0.128
24,AGTCAGAC,0.248
25,GAAAATGC,-0.269

row,Sequence,PBM E-score
1,CCTATCAG,-0.0514
2,AGCCGATC,0.0868
3,CAGATACC,-0.0896
4,ATCAACGG,0.146
5,GCAATGCA,-0.106
6,AGAGCCTG,-0.231
7,ACTTTGGG,0.00749
8,AAGGTACG,-0.16
9,CAGACTGC,0.00779
10,GTGAATGA,0.0662
11,TCTAAGAA,-0.16
12,ACAATTAC,0.0273
13,AGACCGCG,0.0233
14,ACTCGTAG,0.16
15,GCCAGCGC,-0.106
16,AACCCCTA,-0.0392
17,AGAGATAG,-0.194
18,GCCGGGCA,-0.031
19,ATACTTGA,-0.141
20,ACCGCTAT,-0.00267
21,TAAGGAGA,-0.154
22,ATCCACCG,0.114
23,CCCTTGAA,-0.12
24,ATTTGTGC,-0.0333
25,CCACCTGG,-0.0837

row,Sequence,PBM E-score
1,ATGTTTCG,0.167
2,CGTGGTAA,-0.0457
3,TGGGGACA,-0.118
4,GAGTCTCA,0.256
5,AGACATTA,0.038
6,CAAAGGCG,-0.0789
7,ATTGTGAA,-0.0037
8,GCAAGGTA,-0.23
9,CAGCCCCA,0.0608
10,CCTATGAA,-0.117
11,GGATACAA,0.106
12,CACCGCGG,0.2
13,ACCTCACA,0.0753
14,ACCTCGAG,0.0042
15,CATTATTA,0.111
16,CCTTAAAC,-0.156
17,CGGACCGA,0.0284
18,AGCGGCTC,-0.0971
19,AATCTGGA,-0.0288
20,GGCCATAA,-0.0526
21,CCGGATAC,0.125
22,AATACATC,0.159
23,CGAGAGAG,-0.191
24,GGCGGCCC,-0.00853
25,AACATTCA,-0.0618

row,Sequence,PBM E-score
1,GTCGTTGA,0.0411
2,CCATTAGG,-0.249
3,CGAACGAG,-0.0695
4,AATACGAC,0.171
5,AGGATCAA,0.0354
6,ATAATCTG,0.0126
7,AAATCCCT,-0.259
8,ACCCCACC,0.385
9,CAAGATCA,0.143
10,CGACTCAG,0.428
11,ACTTACTA,-0.0804
12,CTTTCTAA,-0.151
13,ATACCCCA,0.0606
14,ACAAATGG,0.185
15,CTGTACTA,0.0704
16,CTACACGC,0.00513
17,AAGTTACA,0.0308
18,TAGTGTGA,0.088
19,AGTCGCGA,0.305
20,AGCTATCC,-0.309
21,AGGTTCAT,0.0353
22,CGTAACTC,-0.0198
23,CATACCAC,-0.0239
24,CCGCGTGC,-0.0148
25,GATTAAAA,0.0635

row,Sequence,PBM E-score
1,CACATGGC,0.138
2,AGAAGACC,-0.227
3,CCCGGGAC,0.0125
4,TCACAAAA,-0.0514
5,CTTGTGTC,0.11
6,CCCTGGAA,-0.11
7,AGCACGGA,-0.086
8,ACACACCC,0.198
9,TGGATAAA,-0.0384
10,ACGTATCC,-0.194
11,CGTTGTCC,0.0312
12,CCCGAGGC,0.0675
13,ATGCCAAG,-0.0266
14,CCAACTCG,0.154
15,ACGGGTTA,-0.255
16,CCTGCCGA,-0.0773
17,TCCATAGA,-0.0605
18,GTACACTA,0.0675
19,CTATGGCC,-0.123
20,TACCCAAA,-0.031
21,CCGCAAAC,0.182
22,GCACGCGA,0.0992
23,CTAAGTCC,-0.151
24,GGGGTGAC,0.0669
25,CTGAGTTC,0.0461

row,Sequence,PBM E-score
1,CTCACTCC,-0.00221
2,CATATTTC,-0.0396
3,CCGATTGC,0.14
4,CGTTCCCA,-0.132
5,CAACAATG,0.168
6,CCCCATAG,-0.0409
7,GTGGACAC,0.0973
8,AGCATCAG,0.0568
9,ATAGTCCA,0.121
10,CCGTCGAA,-0.119
11,ACGAGGTA,0.048
12,AAATATTA,0.134
13,ATCAATCC,0.1
14,ACACTATG,0.292
15,ACTTGTAT,0.13
16,GGGCAACC,-0.168
17,AGCTCAAG,-0.129
18,CTATAGGC,-0.243
19,CTTGAAAG,-0.189

# Source: the supplement of paper PMC3334620
